Assay results as given in publication PMC4336329 (PLoS ONE, 2015).
Hit rate of the full screen: of about 310,000 compounds, about 2,200 (0.71%) showed an effect of 50% or more. The effect is printed as a negative number. This is one part of the list.

Each molecule was assayed against human ether-à-go-go-related gene (hERG) potassium channel (human, UniProt Q12809) (assay: primary screen, population patch clamp on CHO cells stably expressing hERG).
Sequence of human ether-à-go-go-related gene (hERG) potassium channel (Q12809 whole entry, looked up): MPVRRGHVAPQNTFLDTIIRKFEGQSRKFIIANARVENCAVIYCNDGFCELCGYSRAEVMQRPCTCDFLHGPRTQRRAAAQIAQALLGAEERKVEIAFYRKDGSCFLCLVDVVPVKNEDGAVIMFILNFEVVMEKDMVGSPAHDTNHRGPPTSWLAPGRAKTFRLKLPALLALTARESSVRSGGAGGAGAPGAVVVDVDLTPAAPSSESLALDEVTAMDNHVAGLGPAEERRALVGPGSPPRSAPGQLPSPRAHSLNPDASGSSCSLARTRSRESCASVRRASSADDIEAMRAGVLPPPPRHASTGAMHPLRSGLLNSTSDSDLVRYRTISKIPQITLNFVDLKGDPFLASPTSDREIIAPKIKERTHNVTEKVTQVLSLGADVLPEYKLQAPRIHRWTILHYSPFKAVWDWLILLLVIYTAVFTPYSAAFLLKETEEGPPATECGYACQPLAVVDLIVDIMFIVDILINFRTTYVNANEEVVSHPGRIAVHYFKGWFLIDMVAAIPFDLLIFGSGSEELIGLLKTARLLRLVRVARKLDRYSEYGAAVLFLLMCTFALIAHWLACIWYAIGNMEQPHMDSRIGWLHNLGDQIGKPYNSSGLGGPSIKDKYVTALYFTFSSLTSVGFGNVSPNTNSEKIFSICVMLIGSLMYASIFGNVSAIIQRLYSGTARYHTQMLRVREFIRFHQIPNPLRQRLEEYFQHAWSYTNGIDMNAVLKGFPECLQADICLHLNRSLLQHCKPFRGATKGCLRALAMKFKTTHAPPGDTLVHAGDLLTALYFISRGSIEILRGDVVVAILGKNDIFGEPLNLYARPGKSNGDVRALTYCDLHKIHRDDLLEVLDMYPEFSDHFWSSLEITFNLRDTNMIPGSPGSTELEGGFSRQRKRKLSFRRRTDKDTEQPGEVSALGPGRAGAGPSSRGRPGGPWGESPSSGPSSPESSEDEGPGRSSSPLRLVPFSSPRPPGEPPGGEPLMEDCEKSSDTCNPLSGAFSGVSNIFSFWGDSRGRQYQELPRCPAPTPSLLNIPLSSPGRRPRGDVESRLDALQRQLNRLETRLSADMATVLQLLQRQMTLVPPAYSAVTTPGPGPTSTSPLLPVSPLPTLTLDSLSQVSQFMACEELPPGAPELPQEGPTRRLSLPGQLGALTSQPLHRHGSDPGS

In order of falling “hERG current change (%, negative = inhibition) at 1uM” value:
1. CCSc1nnc(-c2ccccc2NC(=O)CC)c(=O)[nH]1  21.7%
2. Cc1ccc(COc2cccc(/C=N/NC(=O)c3nnn(-c4nonc4N)c3C)c2)cc1  21.3%
3. O=C(NCC1CCCO1)C(c1cccs1)N(Cc1ccccc1Cl)C(=O)c1ccc(-c2ccccc2)[nH]1 (stereo not shown)  20.4%
4. Nc1n[nH]c(CO)n1.O=C(O)CO  18.5%
5. Cc1cc(Nc2ccccc2)n(C(=O)c2ccc(Cl)cc2)n1  18.2%
6. Cc1c(C(=O)Nc2ccc3c(c2)OCO3)sc2nc(-c3ccccc3)cn12  17.5%
7. COC(=O)c1ccccc1S(=O)(=O)NNC(=O)Nc1ccccc1  17.2%
8. COC(=O)C1CCN(C(=O)COC(=O)C2CCN(S(=O)(=O)c3ccc(C)c(C)c3)CC2)CC1  16.6%
9. Cc1cc(NC(=O)c2ccccc2Cl)no1  16.5%
10. Cc1cc(-c2n[nH]c(=S)n2/N=C/c2ccc(C)s2)n[nH]1  16.1%
11. COc1ccc(CCNC(=O)C(CCC(N)=O)NS(=O)(=O)c2ccc(Cl)cc2)cc1OC (stereo not shown)  16%
12. COc1ccc(-n2c(=S)[nH]c3[nH]ncc3c2=O)cc1  15.9%
13. CCOc1ccc(CCNC(=O)c2ccc3c(=O)n4c(nc3c2)CCCCC4)cc1  15.9%
14. O=C(Cc1ccccc1[N+](=O)[O-])Nc1cccc(S(=O)(=O)NC2=NCCCCC2)c1  15.8%
15. CCCn1c(N)c(C(=O)CSc2ncc(C(F)(F)F)cc2Cl)c(=O)[nH]c1=O  15.7%
16. CCOC(=O)c1ccc(N2CN(CC)CNC2=S)cc1  15.5%
17. O=C(CNC1CCCCC1)Nc1cc(S(=O)(=O)N2CCOCC2)ccc1Cl  15.2%
18. COC(=O)c1c(NC(C)=O)sc(C(=O)Nc2ccccc2C)c1C  15.2%
19. O=C(NCCc1c[nH]c2ccccc12)C1CCN(S(=O)(=O)c2ccccc2F)CC1  14.8%
20. Cc1ccccc1NC(=O)c1cccc(S(=O)(=O)Nc2cccc(C(=O)O)c2)c1  14.1%
21. Cc1c(O)ccc(/C=N/Nc2nc(-c3cccnc3)nc3ccccc23)c1O  13.7%
22. c1nnnn1C12CC3CC(CC(C3)C1)C2  13.5%
23. COc1ccc2[nH]c(C(=O)O)c(NS(=O)(=O)c3ccc(C)cc3C)c2c1  13.2%
24. CCOC(=O)C12CNC(=O)C(C(=O)OCC)(CNC1=O)C2  12.8%
25. O=[N+]([O-])c1ccc(/C=N/n2c(-c3ccccc3)n[nH]c2=S)cc1  12.5%
26. Cc1ccccc1CN(CC1CCC(C(=O)O)CC1)C(=S)Nc1ccccc1F (stereo not shown)  12.5%
27. COc1ccc(-c2sc3cc4c(cc3c2C#CC2(O)CCCCC2)OCO4)cc1  12.5%
28. COc1cc(-c2nnn(CC(=O)NC3CCS(=O)(=O)C3)n2)ccc1OCc1ccccc1 (stereo not shown)  12.4%
29. CC(=O)Nc1ccc(C(=O)OCC(=O)N2CCC(Cc3ccccc3)CC2)cc1  11.8%
30. COc1ccc(COCC(O)CN2CC(C)OC(C)C2)cc1OC.Cl (stereo not shown)  11.8%
31. Cc1cc(C)c(S(=O)(=O)N(C)CC(N)=O)c(C)c1  11.7%
32. Cc1ccc(NC(=S)NCCSc2ccc(Cl)cc2)cc1  11.1%
33. Cc1cc(CNC(=O)CC2C(=O)NCCN2Cc2ccc(-c3ccccc3)cc2)nn1C (stereo not shown)  11%
34. O=C(/C=C/c1ccccc1)NCC1(c2ccccc2)CCOCC1  10.9%
35. COC(=O)c1sc(S(=O)(=O)Nc2ccc(Br)cc2)c(C(=O)OC)c1C  10.6%
36. Cn1cnnc1-c1cccc(NS(=O)(=O)c2ccc(N3CCCC3=O)cc2)c1  10.6%
37. C=CCn1c(C)cc(C(=O)COC(=O)/C=C/c2cccc(OC)c2)c1C  10.5%
38. COC(=O)c1ccc(COc2ccccc2/C=N/NS(=O)(=O)c2ccc(C)cc2)cc1  10.5%
39. Nc1nc(SCC(=O)NCCCO)nc2sc3c(c12)CCC3  10.4%
40. CCCCOc1ccccc1NC(=O)c1ccc(=O)[nH]c1  10.2%
41. N#CC1=C(SCc2ccc(C#N)cc2)N=C(N)C(c2nc(-c3ccccc3)cs2)C12CCCCC2 (stereo not shown)  10.1%
42. O=c1c2ccccc2nc(/C=C/c2ccc(F)cc2)n1-c1ccccn1  9.86%
43. CC(C)(C)OC(=O)C(C)(C)Sc1nnc(N)s1  9.84%
44. O=C1c2cc([N+](=O)[O-])ccc2-c2ncccc21  9.72%
45. Cc1ccc(N=C(NO)c2cnccc2C(F)(F)F)c(C)c1  9.7%
46. CN(C)S(=O)(=O)c1cccc(NC(=O)CCCc2nc3ccccc3c(=O)[nH]2)c1  9.64%
47. CCc1nc(SCc2ccc(C(=O)OC)o2)n[nH]1  9.62%
48. Cc1ccccc1OCCC(=O)Nc1cc(S(=O)(=O)N2CCOCC2)ccc1OC(C)C  9.36%
49. COc1ccc(Nc2ccc(N3C(=O)CCCC3=O)cc2[N+](=O)[O-])c(OC)c1  9.05%
50. COC(=O)C1=CN(CCCN2CCCC2=O)C=C(C(=O)OC)C1c1cccs1  8.6%
51. c1ccc(C2=Nn3c(nnc3-c3ccncc3)SC2)cc1  8.34%
52. O=C(CN(Cc1cccs1)C(=O)CSc1nnc(COc2ccccc2)o1)NC1CCCC1  8.25%
53. Cc1ccc(C)c(N(C(=O)c2csnn2)C(C(=O)NC2CCCCC2)c2ccccn2)c1 (stereo not shown)  8.25%
54. O=S(=O)(c1ccc(C(F)(F)F)cc1)N1CCCN(c2ccc(C(F)(F)F)cn2)CC1  8.1%
55. CCOc1ccc(NC(=O)Cc2ccccc2)cc1  7.84%
56. CCN(CC)c1nc(Nc2ccccc2)nc(Oc2ccc(=O)n(C)n2)n1  6.81%
57. O=C1CC(c2ccccc2)CC(O)=C1C=NCc1ccccc1Cl (stereo not shown)  6.73%
58. COc1ccc(CCNC(=O)CCN2C(=O)[C@@H]3Cc4ccccc4CN3C2=O)cc1  6.69%
59. CCOc1ccc(CSCCNC(=S)Nc2ccc(OC)cc2)cc1  6.24%
60. CN(C(=O)c1ccoc1)c1ccc2ccccc2c1  5.99%
61. O=C(COc1ccccc1)Nc1ccccc1Oc1ccccc1  5.9%
62. COc1ccc2c(c1)-c1ccccc1S(=O)(=O)N2C(C)=O  5.27%
63. O=C(Cn1cc[n+](CC(=O)c2ccccc2)c1)c1ccccc1.[Br-]  4.99%
64. CCOC(=O)C1(Cc2ccc(Cl)cc2)CCN(C(=O)C2CCCO2)CC1 (stereo not shown)  4.14%
65. COc1ccc(C2=C(c3ccc([N+](=O)[O-])cc3)C(=O)OC2)cc1  4.1%
66. O=C(c1ccco1)N1CCN(C(=O)C2CC(c3ccccc3F)=NO2)CC1 (stereo not shown)  3.75%
67. CC(=O)Nc1ccc(-c2nc3c(C)cccc3[nH]2)cc1  3.09%
68. CC(C)NC(=O)c1c(O)c2ccccc2[nH]c1=O  3.05%
69. CCc1ccc(NC(=S)Nc2cccc3cnccc23)cc1  2.22%
70. Cc1c(N2C(=O)/C(=C\c3cccc4ccccc34)SC2=S)c(=O)n(-c2ccccc2)n1C  2.18%
71. COc1ccc(CN2C(=NC(=O)C3CC3)SC3CS(=O)(=O)CC32)cc1OC (stereo not shown)  2.11%
72. CCC(C)(C)NC(=O)C(c1ccncc1)N(Cc1ccc(C)cc1)C(=O)c1csnn1 (stereo not shown)  1.92%
73. OC1(c2ccc(Br)cc2)CCN(Cc2cccc(Br)c2)CC1  1.5%
74. Cc1oc(-c2ccccc2F)nc1CSCC(=O)NCc1ccc2c(c1)OCO2  1.31%
75. CCCCCCCCCC[N+](C)(C)CC/C=C1/c2ccccc2Sc2ccc(Cl)cc21.[Br-]  1.09%
76. CCSc1nsc(NC(=O)Nc2cccc(OC)c2)n1  0.414%
77. O=C(Nc1ccc(F)cc1)c1sccc1SCc1cccc(C(F)(F)F)c1  -0.0861%
78. O=C1CC(c2cccc(O)c2)Oc2ccccc21 (stereo not shown)  -1.44%
79. Cc1ccsc1C(=O)C1CCCN(Cc2ccccc2O)C1 (stereo not shown)  -3.16%
80. O=C(Nc1ccccc1)c1cccc(-c2nnc(-c3ccccc3)o2)c1  -3.23%
81. COc1ccccc1C(=O)Nc1nsc(-c2ccccc2)n1  -4.4%
82. CCCOc1ccc(C(=O)NCC(C)(C)N2CCOCC2)cc1  -4.68%
83. CCOC(=O)C1CCN(C(=O)CCn2c(=O)c3cccn3c3cccnc32)CC1  -8.62%
84. Cn1c(CN2CCCC2)nc2cc(NC(=O)COc3ccccc3)ccc21  -12.4%
85. COc1ccc(CNC(=O)CN(Cc2ccc(F)cc2)C(=O)c2csnn2)cc1  -21.6%
86. CC(=O)c1cc(Cl)ccc1OCc1cccc(S(=O)(=O)N2CCOCC2)c1  -34.6%
87. O=C(c1ccc(Cl)cc1)N1CCC(C(=O)N2CCCc3ccccc32)CC1  -46.6%
88. Cc1cc(C)c2cc(CN(CCN3CCCC3)C(=O)Nc3ccc(F)cc3)c(=O)[nH]c2c1  -57.9%
